Measurements published in PubChem BioAssay AID1963576 (National Center for Advancing Translational Sciences (NCATS), 2024).
Out of some 46,000 compounds screened, about 60 (0.1%) were called active. Roughly 3% stayed inconclusive and do not appear here. The call rests on the fitted dose curve; in most records, active means well fitted inhibition curve with a large enough effect; inconclusive means small, poorly fitted or top-dose-only effect; inactive means no such curve, though single readings can be large or run the other way. The list shows a part of the results.

assay: Primary qHTS assay for Inhibitors of ovarian cancer metastasis using an organotypic tumor microenvironment (TME) model.; further: nearly all actives have a fitted effect of over 65% in size;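 on activity change, negative = inhibition: plate controls were DMSO wells for no effect and tomatine positive control wells for full effect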; conditions: SKOV3ip1-GFP adhesion/invasion on 3D omental model, fluorescence; series mostly up to 45.8 µM; activity change, negative = inhibition: at the top concentration
Procedure, shortened: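 qHTS, 4-pt dose (0.36-46 umol/L); SKOV3ip1-GFP, 1,200 cells/well, no FBS; primary omental fibroblast/mesothelial co-culture 48 h pre-grown; 2 h RT + 16 h 37 C; PBS wash, 4% PFA; GFP count 488/509 nm.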

Activity change, negative = inhibition, inactive:
CC(C)COc1ccc(C(=O)N2CCN(CCc3ccccn3)CC2)cc1 9.57%, CCOc1ccc(CCNC(=O)Cn2ncn3c(cc4ccccc43)c2=O)cc1OCC -6.82%, CCn1c(C(=O)Nc2cc(Cl)ccc2C)cc2sc(Cl)cc21 16.3%, COc1ccc(CCNC(=O)CCc2c(C)c3cc4c(C)c(C)oc4cc3oc2=O)cc1 -21%, COc1ccc(NC(=O)CC(C)n2nc(C)cc2C)cc1Cl (stereo not given) 7.28%, CCN(CC)S(=O)(=O)c1ccc2oc(C(=O)Nc3ccc(Br)cc3F)c(C)c2c1 2.38%, COc1ccc(CNC(=O)CN2C(=O)CCCc3ccccc32)cc1 -1.24%, Cc1ccc(-c2nc3ccc(Cl)cn3c2Nc2ccc3c(c2)OCCO3)s1 -3.82%, Cc1ccc(Sc2c(C(=O)NCc3ccccc3C)[nH]c3ccccc23)cc1 -7.31%, CCc1ccc(-c2nc(-c3cc4ccccc4oc3=O)sc2C)cc1 -9.25%, Nc1ncnc2c1c(-c1cccc(OCc3ccccc3)c1)cn2C1CC(CN2CCCC2)C1 (stereo not given) -18.1%, Cc1cccc(-c2nc(SCC(=O)NCc3ccco3)c3c(=O)n(C)c(=O)n(C)c3n2)c1 2.55%, Cc1ccc(Cn2c(CNS(=O)(=O)c3ccc(Cl)s3)nc3cccnc32)cc1 7.54%, CCN(CCCNC(=O)c1nn(-c2ccc(OC)c(Cl)c2)c(=O)c2c1c1ccccc1n2C)c1cccc(C)c1 -7.62%, COc1ccccc1N1CCN(c2nc3c(S(=O)(=O)c4ccc(C)c(C)c4)nnn3c3ccc(Cl)cc23)CC1 0.625%, CCOC(=O)C(=O)Nc1c(C(=O)Nc2cccc(F)c2)oc2ccccc12 50.3%, CN(C)c1ccc(C2Nc3ccc4ccccc4c3C3=C2C(=O)CC(C)(C)C3)cc1Br (stereo not given) 4.97%, COc1ccc(CNC(=O)c2cc(-c3ccc(C)c(C)c3)n[nH]2)cc1 -0.209%, COc1ccc(C(=O)Nc2c(C(=O)c3ccccc3)oc3ccccc23)cc1 44.1%, O=C(Nc1cc(Cl)cc(Cl)c1)c1cc(S(=O)(=O)N2CCc3ccccc3C2)ccc1F 2.78%, CCOC(=O)c1cccc(NC(=O)C2CCCN(c3nnc(C)c4c(C)n(-c5ccccc5)nc34)C2)c1 (stereo not given) 15.7%, COc1ccc(NC(=O)c2cc3cc(C)ccc3n2C)cc1 1.93%, Cn1c(=O)c(=O)n(C)c2cc(N3CCOCC3)c(NS(=O)(=O)c3ccc(F)c(Cl)c3)cc21 6.69%, Cc1ccc(-c2nnc3ccccc3c2C(=O)Nc2cccc(Cl)c2)cc1 0.327%, Cc1ccc(Cl)cc1NC(=O)c1ccc2snnc2c1 -0.478%, COc1ccc(NC(=O)c2ccc3c(c2)nnn3C2CCCC2)cc1Cl -0.71%, COc1ccc(C(=O)Nc2nnc(S(=O)(=O)N(CC(C)C)c3ccccc3)s2)cc1 -1.17%, CNS(=O)(=O)c1cn(CC(=O)Nc2ccc(C)c(N(C)C)c2)cc1S(=O)(=O)NC 12.3%, CC1=C(C(N)=O)C(c2ccc(F)cc2)n2nc(-c3ccc(N(C)C)cc3)nc2N1 (stereo not given) -15.1%, CCN(C(=O)c1cc(S(=O)(=O)N2CCc3ccccc32)cn1C)c1cccc(C)c1 9.68%, Cc1ccc(Cl)cc1N1CCN(C(=O)c2cccn2-c2nnc(N3CCCC3)s2)CC1 5.87%, Cc1ccc(-c2nn(CC(=O)NC3CCCCC3)c3c2cnc2ccccc23)cc1 3.13%, Cc1ccc2c(=O)c(C(=O)c3ccc(F)cc3)cn(CC(=O)NCc3ccccc3Cl)c2n1 0.406%, CCCCCc1ccc(-c2ccc(C(=O)Oc3ccc(C(=O)OC)cc3)cc2)nc1 5.04%, COc1ccccc1CNC(=O)c1ccc(CSc2nc3ccncc3n2Cc2ccccc2C)cc1 -4.11%, CC(C)c1ccc(NC(=O)C2Cc3ccccc3N2C(=O)c2ccccc2)cc1 (stereo not given) -0.926%, Cc1nc(-c2ccc(S(=O)(=O)N(C)Cc3ccccc3)cc2)co1 -1.08%, Cc1cc(C)cc(N2C(=O)CS(=O)(=O)C23C(=O)N(C)c2ccccc23)c1 (stereo not given) -9.2%, Cc1ccc(-n2ncc(C(=O)N3CCN(c4ncccn4)CC3)c2C2CCN(C(=O)OC(C)(C)C)CC2)cc1 -1.55%, CCOc1ccc(-n2cc(-c3ccccc3)c3c(NCc4ccc(F)cc4)ncnc32)cc1 6.44%, CCCN(CCC)S(=O)(=O)c1ccc(N2CCCCS2(=O)=O)cc1 2.3%, CCn1c2ccccc2c2nnc(N3CCN(c4ccc(OC)cc4)CC3)nc21 -4.59%, CCN(CC)C(=O)CSc1cn(CC(=O)N2CCCCCC2)c2ccccc12 -0.245%, Cc1ccc(C)c(Nc2ncnc3c2cnn3-c2ccc(F)cc2)c1 -6.15%, Cc1nnc(N2CCC(C(=O)N3CCCCC3)CC2)c2nn(-c3ccccc3)c(C)c12 -9.01%, COc1ccc(CNS(=O)(=O)c2ccc3c(c2)NC(=O)C(C)C(=O)N3)cc1 (stereo not given) -0.525%, Cc1ccc(C)c(S(=O)(=O)Nc2ccc3c(c2)CCCN3C(=O)c2cccs2)c1 -4.31%, Cc1ccc(C)c(NC(=O)CSc2ncc3c(n2)-c2ccccc2N(Cc2ccccc2C)S3(=O)=O)c1 6.91%, COc1ccc(/C=C/c2nc(C#N)c(N3CCCCCC3)o2)cc1OC 6.87%, O=S(=O)(N=Cc1c(O)ccc2ccccc12)c1cccs1 23.3%, Fc1ccc([C@@H]2Nc3ccccc3[C@@H]3C=CC[C@@H]32)cc1 -2.43%, COc1ccc(CNc2n[nH]c(-c3ccco3)n2)cc1OC 4.61%, O=C(NCCc1ccccc1)c1cc(-c2cccc(Cl)c2)on1 -2.82%, CCc1ccc(Nc2ncnc3sc4c(c23)CCCC4)cc1 -27.6%, CCc1ccc(NC(=O)c2cc(S(=O)(=O)N3CCCCC3)c[nH]2)cc1 -1.02%, COc1cc(NC(=O)c2cc3nc(-c4ccc(C)cc4)cc(C(F)(F)F)n3n2)cc(OC)c1OC -3.04%, COc1ccc(C2c3c(n(C)c4ccccc34)C(=O)N2CC(=O)Nc2ccccc2Cl)cc1 (stereo not given) 9.98%, O=C(c1ccc(Nc2nc3ccccc3n3nnnc23)cc1)N1CCN(c2ccc(F)cc2)CC1 -5.8%, O=C(Nc1cc(-c2nc3cc(Cl)ccc3o2)ccc1Cl)c1cccc2ccccc12 5.08%, COc1ccc(CCNC(=O)c2c[nH]n3c(=O)c(Cc4ccccc4Cl)c(C)nc23)cc1OC 11.9%, CCn1c2c(c(=O)n3ncc(C(=O)Nc4ccc(OC(F)(F)F)cc4)c13)CN(Cc1ccc(OC)cc1)CC2 -0.276%, Fc1ccc(CNc2ncnc3ccc(F)cc23)cc1 2.01%, COc1ccc(CCNC(=O)c2cnc3sc(N4CCOCC4)nn3c2=O)cc1OC -6.57%, CC(=O)c1cccc(NC(=O)Cn2c(=O)oc3cc(S(=O)(=O)NCc4ccccc4)ccc32)c1 18.2%, Cc1ccc(CNC(=O)c2nnn(Cc3ccc(F)cc3)c2N)cc1 0.347%, COc1ccc(OCc2ccc(-c3nc(C#N)c(N4CCC(C(N)=O)CC4)o3)o2)cc1 -0.551%, O=S(=O)(Nc1ccc(F)cc1F)c1ccc(Br)s1 -2.12%, O=C(NCc1cccs1)c1ccc(CSc2nc3cccnc3n2Cc2ccc(F)cc2)cc1 8.57%, CC1CCn2c(nc3cc(C(=O)NCc4ccc(F)cc4)ccc32)C1 (stereo not given) -6.86%, CCOc1nc(NC(=O)NS(=O)(=O)Oc2cccc(Cl)c2)nc(-c2ccccc2)n1 -13.7%

outcome, inactive:
CCOC(=O)c1c(NC(=O)COc2cccc(C(F)(F)F)c2)sc2c1CCCCC2, COc1cc(NC(=O)c2cnc3c(-c4ccc(F)cc4)c(C)nn3c2C)cc(OC)c1, Cc1cc2[nH]c(=O)c(=O)[nH]c2cc1S(=O)(=O)N1CCN(c2cccc(C)c2C)CC1, CCOC(=O)c1ccc(NS(=O)(=O)c2cc(Br)cc3c2N(C(C)=O)C(C)C3)cc1 (stereo not given), Cc1cccc(-n2ccnc2SCC(=O)Nc2nc3ccccc3s2)c1, CCc1c(C)sc(NC(=O)C2c3ccccc3Oc3ccccc32)c1C(=O)OC(C)C, CCc1ccccc1Nc1cc(C(=O)NC2CCC(C)CC2)c2ccccc2n1 (stereo not given), COc1ccc(OC)c(C2C(C(=O)Nc3ccccc3OC)=C(C)Nc3c(C(=O)Nc4ccc(F)cc4)cnn32)c1 (stereo not given), CC(C)(C)OC(=O)N1CCC(c2c(C(=O)NCc3ccc4c(c3)OCO4)cnn2-c2ccccc2Cl)CC1, COc1cc(NC(=O)NCCn2nnc3cc(S(=O)(=O)N(C)C)ccc32)cc(OC)c1, Cc1ccc(Cn2c(C(=O)O)c(CNCc3cccs3)c3ccc(C)cc32)cc1, Cc1ccc(S(=O)(=O)C2(C(=O)Nc3ccc(C(C)C)cc3)CC2)cc1, COc1ccc(CNc2nc(-c3ccc(Cl)cc3)nn2C(=O)c2ccccc2)cc1, CCOC(=O)Cn1nc(C)c(NC(=O)COc2ccc(C)c(C)c2)c1C, COc1ccc(-c2cc(C(F)(F)F)nc(SCCC(=O)Nc3ccc(O)cc3)n2)cc1, Cc1ccc(NC(=O)C2CCN(c3nc4ccccc4nc3C(F)(F)F)CC2)cc1C, COc1ccc(C)cc1NS(=O)(=O)c1ccc(-c2cnc(C3CC3)o2)cc1, O=C(Cn1cc(S(=O)(=O)c2ccc(Cl)cc2)c(=O)c2ccccc21)Nc1ccc2c(c1)OCO2, COc1ccc(CCN2C(=O)N(c3ccc(F)cc3)C(=O)C2CC(=O)Nc2ccccc2)cc1OC (stereo not given), CCCN(C(=O)c1cc2c(=O)n(CC)c3ccccc3c2s1)c1ccccc1F, CCCc1c(C(=O)OCC)nnc2c(-c3ccccc3)c(C)nn12, COc1cc(NC(=O)Cn2c(=O)n(Cc3ccccc3Cl)c(=O)c3cc(OC)c(OC)cc32)cc(OC)c1, CC1CCN(c2ccc(-c3cccc(NS(=O)(=O)c4cccs4)c3)nn2)CC1, Cc1ccc2c(c1)cc1c(=O)n(CC(=O)NC(C)CCc3ccccc3)nc(C)n12 (stereo not given), Cc1cc(C)cc(NC(=O)C2CCN(C(=O)c3cnn(-c4ccccc4)c3-n3cccc3)CC2)c1
